# Some of the results follow.
# Tested on: HSkMC (human skeletal muscle cells)
# Test: cytotoxicity call (relative viability < 0.9)
# Settings: 10 µM
row,SMILES,cytotoxicity call
1,O=C(CN1CCOCC1)NCC[C@H]1CC[C@H](NC(=O)Nc2ccccc2)[C@H](CO)O1,inactive
2,C[C@@H]1CN([C@H](C)CO)S(=O)(=O)c2ccc(C#CC(C)(C)O)cc2O[C@@H]1CN(C)C(=O)CN(C)C,inactive
3,COc1cccc(-c2cnc3c(c2)C(=O)N([C@H](C)CO)C[C@H](C)[C@H](CN(C)S(=O)(=O)c2cccc(F)c2)O3)c1,inactive
4,Cc1noc(C)c1NC(=O)N(C)C[C@H]1OCCCC[C@@H](C)Oc2ccc(NC(=O)CCC(F)(F)F)cc2C(=O)N([C@@H](C)CO)C[C@H]1C,inactive
5,Cc1ccc(S(=O)(=O)N[C@@H](Cc2ccccc2)C(=O)NCCn2cc(CCC(=O)NO)nn2)cc1,inactive
6,CN1CCN(C(=O)C[C@@H]2CC[C@H]3[C@@H](COc4ccc(NC(=O)C5CCCCC5)cc4C(=O)N3C)O2)CC1,inactive
7,Cc1cccc(S(=O)(=O)N2C[C@@H](O)COC[C@H]3O[C@@H](CC(=O)NCc4ccncn4)CC[C@@H]32)c1,inactive
8,C[C@@H]1CN([C@@H](C)CO)C(=O)c2c(c3ccccc3n2C)-c2ccccc2CO[C@H]1CN(C)C(=O)Nc1ccccc1,inactive
9,COc1ccc(S(=O)(=O)N[C@H]2C=C[C@@H](CC(=O)N3CCN(c4ccccc4)CC3)O[C@@H]2CO)cc1,inactive
10,C[C@@H]1CN([C@H](C)CO)C(=O)c2cc(NC(=O)Cc3ccccc3)ccc2O[C@@H](C)CCCCO[C@@H]1CN(C)Cc1ccncc1,inactive
11,CN(C)C(=O)C[n+]1ccc(/C=N/O)cc1,inactive
12,C[C@H](CO)N1C[C@H](C)[C@H](CN(C)C(=O)c2ccccc2)OCCCC[C@H](C)Oc2ccc(NC(=O)Nc3cccc4ccccc34)cc2C1=O,inactive
13,Cc1nn(C)cc1NC(=O)C[C@H]1CC[C@@H]2[C@@H](COc3ccc(NC(=O)C4CCOCC4)cc3C(=O)N2C)O1,inactive
14,CNC[C@@H]1Oc2ccc(NC(=O)Cn3cnnn3)cc2CC(=O)N([C@H](C)CO)C[C@H]1C,inactive
15,COc1ccc(NC(=O)Nc2ccc3c(c2)CC(=O)N([C@H](C)CO)C[C@H](C)[C@@H](CN(C)C(=O)Nc2cccc4ccccc24)O3)cc1,inactive
16,C=CCSc1nc(=O)cc(N)[nH]1,inactive
17,COCC(=O)N1C[C@H](C)[C@@H](OC)CN(C)C(=O)c2ccc(NC(=O)Nc3cccc(F)c3)cc2OC[C@H]1C,inactive

row,SMILES,cytotoxicity call
1,O=C(C[C@H]1CC[C@@H](NC(=O)Cc2ccccn2)[C@H](CO)O1)NCCCN1CCOCC1,inactive
2,C[C@@H]1CN([C@@H](C)CO)C(=O)Cc2cc(NC(=O)CCC(F)(F)F)ccc2O[C@H]1CN(C)Cc1ccc(C(=O)Nc2ccccc2N)cc1,inactive
3,Cn1cccc1CNCCCN1CCOCC1,inactive
4,C[C@@H]1CN([C@@H](C)CO)C(=O)c2cc(NC(=O)CCC(F)(F)F)ccc2O[C@@H](C)CCCCO[C@H]1CN(C)S(=O)(=O)c1ccccc1,inactive
5,Cc1ccc(S(=O)(=O)Nc2ccc3c(c2)C(=O)N([C@H](C)CO)C[C@@H](C)[C@@H](CN(C)C(=O)C2CCCCC2)OCCCC[C@@H](C)O3)cc1,inactive
6,Cc1cc(C(=O)Nc2cccc3c2O[C@H](CN(C)Cc2ccc(C(=O)O)cc2)[C@@H](C)CN([C@H](C)CO)C3=O)n(C)n1,inactive
7,CCS(=O)(=O)N1C[C@]2(CN(Cc3cc(ccc3F)F)[C@H](CO)c3c2c2ccc(cc2n3C)OC)C1,inactive
8,O=C(O)C1C(=CCO)OC2CC(=O)N21.[LiH] (stereo not drawn),inactive
9,CC(C)(CO)[C@H](O)C(=O)NCCC(=O)NCCSSCCNC(=O)CCNC(=O)[C@H](O)C(C)(C)CO,inactive
10,O=C(C=CC=Cc1ccc2c(c1)OCO2)N1CCCCC1,inactive
11,CC1COC2=C1C(=O)C(=O)c1c2ccc2c1CCCC2(C)C (stereo not drawn),active
12,C[C@H]1CN([C@@H](C)CO)C(=O)c2cc(NC(=O)Nc3cccc4ccccc34)ccc2O[C@@H]1CN(C)S(=O)(=O)c1ccc(F)cc1,inactive
13,C[C@@H]1CN([C@H](C)CO)C(=O)Cc2cc(NC(=O)c3ccncc3)ccc2O[C@@H]1CN(C)S(=O)(=O)c1ccccc1,inactive
14,CCC(=O)Oc1ccc2c(c1)CCC1C2CCC2(C)C1CC(OC(=O)CC)C2OC(=O)CC (stereo not drawn),inactive
15,C[C@@H]1CN([C@@H](C)CO)S(=O)(=O)c2ccc(C3=CCCC3)cc2O[C@H]1CN(C)S(=O)(=O)c1ccc(F)cc1,inactive
16,COC(=O)CC1(N)CCCCC1,inactive
